# PubChem BioAssay (NCI)
#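 In this assay, cells in 96-well plates receive the compound at five concentrations for 48 hours. Endpoints are linearly interpolated between the surrounding concentrations. GI50 = concentration required for 50% inhibition of growth.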 A number of entries come with more than one value. This list holds those alone. An entry can have further records. For some of these results: Records of one sample usually come from different ranges of test concentrations, not given here; some values may only mark the edge of a range. For some of these results: Values given together are repeated measurements (runs, samples, wells, individuals or studies). Records carry a tag for their origin. Letters hold for one entry only.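 At the TGI there is no net growth.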
# Legend:
# Experiment in all cases: NCI anticancer screen, dose series, 48 h
# [1] = system: HOP-62 NSCLC
# [2] = system: SF-295 CNS
# [3] = system: SR leukemia
# [4] = system: BT-549 breast
# [5] = system: KM12 colon
# [6] = system: MDA-MB-435
# [7] = system: OVCAR-8 ovarian
# [8] = system: SF-268 CNS
# [9] = system: SW-620 colon
# [10] = system: U251 CNS
# [11] = system: CAKI-1 renal
# [12] = system: HL-60(TB) leukemia
# [13] = system: HOP-18 NSCLC
# [14] = system: HOP-92 NSCLC
# [15] = system: IGROV1 ovarian
# [16] = system: LOX IMVI melanoma
# [17] = system: MCF7 breast
# [18] = system: NCI-H522 lung
# [19] = system: NCI/ADR-RES ovarian
# [20] = system: SF-539 CNS
# [21] = system: SNB-75 CNS
# [22] = system: SNB-78 CNS
# [23] = system: UO-31 renal
# [24] = system: MOLT-4 leukemia
# [25] = system: 786-0 renal
# [26] = system: EKVX NSCLC
# [27] = system: HCT-116 colon
# [28] = system: K-562 leukemia
# [29] = system: RPMI-8226 leukemia
# [30] = system: SN12C renal
# [31] = system: UACC-62 melanoma
# [32] = system: HS 578T breast
compound,measurement,setting,value
Cc1cnc(-c2ccc(-c3ccc(NC(=O)Nc4c(F)cc(F)cc4F)cc3F)c3c2C(=O)NC3)[nH]1,GI50,[1],"54.3 nM [sample A, 1 test] and 1.82 µM [sample B, mean of 2 tests]"
same,GI50,[2],"2.41 µM [sample A, 1 test] and 115 nM [sample B, mean of 2 tests]"
same,TGI,[3],"578 nM [sample A, 1 test] and > 100 µM [sample B, 1 test]"
CCCCCCCCCC[C@H](O)[C@H]1CC[C@@H]([C@@H](O)CC[C@H](O)[C@@H]2CCC(CCCCCCC[C@@H](O)CC3=C[C@H](C)OC3=O)O2)O1 (some centres not stated),TGI,[4],1.92 µM and 22.1 µM
same,TGI,[5],3.24 µM and 47.9 µM
same,TGI,[6],3.17 µM and 45.7 µM
same,TGI,[7],3.99 µM and > 100 µM
same,TGI,[8],5.34 µM and 86.6 µM
same,TGI,[9],5.59 µM and > 100 µM
same,TGI,[10],5.34 µM and > 100 µM
CC1[C@@H]2CC=C3[C@H]4CCC5Cc6nc7c(nc6C[C@@]5(C)C4CC(=O)[C@]32CO[C@]12OC(C)(C)CC2O)CC1CC[C@@H]2C3=C[C@H]4O[C@@]5(O[C@@](C)(CO)C[C@@H]5O)C(C)[C@@]4(O)[C@]3(C)[C@@H](O)CC2[C@]1(C)C7 (some centres not stated),GI50,[11],1.54 nM and 30.2 nM
same,TGI,[11],124 nM and > 3.65 µM
same,TGI,[12],44.8 nM and 3.2 nM
same,GI50,[13],72.4 nM and 2.93 µM
same,TGI,[14],15.8 nM and 415 nM
same,TGI,[15],215 nM and > 3.65 µM
same,TGI,[16],811 nM [1 test] and 20.5 nM [mean of 6 tests]
same,TGI,[17],437 nM [1 test] and 37.9 nM [mean of 4 tests]
same,TGI,[18],9.91 nM and 141 nM
same,GI50,[19],69.5 nM and 1.57 µM
same,GI50,[7],59.6 nM and 1.23 µM
same,TGI,[20],1.64 nM and 24.2 nM
same,TGI,[21],2.06 nM and 42.5 nM
same,TGI,[22],59 nM and 2.11 µM
same,GI50,[23],0.615 nM and 16.5 nM
same,TGI,[23],5.72 nM and 75.2 nM
CCC(C)C1NC(=O)C(NC(=O)C(CC(C)C)N(C)C(=O)[C@@H]2CC(O)CN2C(=O)[C@H](C)O)C(C)OC(=O)[C@H](Cc2ccc(OC)cc2)N(C)C(=O)[C@@H]2CCCN2C(=O)[C@H](CC(C)C)NC(=O)C(C)C(=O)[C@H](C(C)C)OC(=O)CC1O (some centres not stated),TGI,[17],1.13 µM and > 100 µM
same,TGI,[24],1.22 µM and 95.5 nM
CN(C)c1ccc(/C=c2/c3cc(O)ccc3n3c2cc(-c2ccccc2)[n+]3C)cc1,TGI,[25],3.92 µM and > 100 µM
same,TGI,[26],7.21 µM and > 100 µM
same,TGI,[27],3.65 µM and > 100 µM
same,TGI,[28],4.19 µM and > 100 µM
same,TGI,[29],1.97 µM and > 100 µM
same,TGI,[30],1.58 µM and > 100 µM
same,TGI,[9],8.79 µM and > 100 µM
same,TGI,[31],2.7 µM and > 100 µM
NC1(C(=O)N[C@@H](CCO)c2ccc(Cl)cc2)CCN(c2ncnc3[nH]ccc23)CC1,TGI,[32],"1.21 µM [sample A, mean of 2 tests] and 18.2 µM [sample B, 1 test]"
